In all, about 50,000 compounds went through this assay and about 800 (1.6%) showed an effect of 50% or more. The list shows a part of the results.
The molecules below were run against Bcl-2-like protein 10 (Homo sapiens) (UniProt Q9HD36) (assay: Phenotype converters, Bcl-B/TR3 peptide binding displacement, primary biochemical FP (AID 1240;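 also: 0% = Bcl-B with tracer peptide and DMSO and 100% = tracer peptide lacking Bcl-B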)). Details: GST-Bcl-B / FITC-TR3 peptide fluorescence polarization; stronger effect = higher value; compound at 3.75 mg/L.
Sequence of UniProt Q9HD36 (Q9HD36 whole entry, looked up): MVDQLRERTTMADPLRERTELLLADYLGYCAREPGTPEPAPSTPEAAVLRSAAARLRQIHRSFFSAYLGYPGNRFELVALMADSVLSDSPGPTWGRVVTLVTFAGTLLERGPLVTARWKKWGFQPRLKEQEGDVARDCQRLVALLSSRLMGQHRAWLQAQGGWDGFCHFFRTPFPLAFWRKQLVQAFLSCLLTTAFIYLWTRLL

First: Nn1nnnc1Nc1cccc2ccccc12
Second: N#CCCOCc1cccc2ccccc12
The displacement of the first is lower: -15.7% for the first, 12.6% for the second.

Compared with `COc1ccc(S(=O)(=O)N(CC(=O)Nc2ccc(C)c(Cl)c2)Cc2ccccc2)cc1`, `COc1ccc(-n2c(SCC(=O)Nc3ccc(C)cc3)nc(O)c(Cc3ccccc3)c2=O)cc1` is higher in displacement: 2.6% for the first, 22.8% for the second.

First: c1ccc2c(N3CCCCC3)c3ccccc3nc2c1
Second: O=C(N/C(=C/c1ccc(Br)cc1)C(=O)N1CCCCC1)c1ccccc1
The displacement of the first is lower: -9.3% for the first, -0.8% for the second.

Compared with `CCOc1ccc(NC(=S)NCCc2ccc(S(N)(=O)=O)cc2)cc1`, `CCOc1ccc(NC(=S)NC(NC(=O)c2ccc(Cl)cc2Cl)C(Cl)(Cl)Cl)cc1` (stereo unspecified) is lower in displacement: 13.2% for the first, 9.1% for the second.

Going from `CC(=O)N(C1CC(C)C(C#N)(C#N)C1(C#N)C#N)N(C)C` (stereo unspecified) to `Cc1cc(/C=N/NC(=O)CC#N)c(C)n1-c1ccc(N(C)C)cc1`, the displacement rises from -13.1% to -9.1%.

Going from `CCOC(=O)c1sc(C)c2c(=O)n(CC(=O)c3ccc(Br)cc3)nnc12` to `CCOC(=O)C1(C)C=C(O)C(=O)N1c1ccc(Br)cc1` (stereo unspecified), the displacement falls from 0.9% to -11.6%.

Going from `Cc1ccc(N2CC(C(=O)Nc3ccc(N(C)C)cc3)CC2=O)cc1` (stereo unspecified) to `Cc1ccc(N2C(=O)NC(=O)/C(=C\c3ccc(Cl)cc3)C2=O)cc1`, the displacement rises from -1.1% to 11%.

Compared with `Cc1ccc2oc(-c3ccc(NC(=O)/C=C/c4ccccc4)cc3O)nc2c1`, `CC(C)COc1ccc(C(=O)Nc2ccc3oc(-c4cccnc4)nc3c2)cc1` is lower in displacement: 7% for the first, -6.5% for the second.

First: N/C(=N\OC(=O)c1ccc2ccccc2c1)c1cccc([N+](=O)[O-])c1
Second: N/C(=N\OC(=O)c1ccccc1Br)c1cccc([N+](=O)[O-])c1
The displacement of the first is lower: -7.7% for the first, -6.4% for the second.

Compared with `COc1ccc(C2/C(=C(\O)c3ccc(C)cc3)C(=O)C(=O)N2c2nncs2)cc1` (stereo unspecified), `COC(=O)C1=C(C)NC2=C(C(=O)CC(c3ccccc3Cl)C2)C1c1ccc(Cl)cc1` (stereo unspecified) is lower in displacement: 13.6% for the first, 5.2% for the second.

Going from `COC(=O)C1C(=O)NCC1c1ccccc1` (stereo unspecified) to `CNC(=O)CC1Sc2ccccc2NC1=O` (stereo unspecified), the displacement falls from 9.5% to -9.6%.

Going from `COC(=O)/C(=C/C(=O)c1ccc([N+](=O)[O-])cc1)Nc1ccc(Br)cc1` to `Cc1ccc(NC(=O)C(=O)NCCN2CCN(Cc3ccc(Br)cc3)CC2)cc1`, the displacement rises from 4.7% to 6.1%.

First: CC(=O)n1cc(Nc2ccccc2O)c2ccccc21
Second: Cc1ccccc1NC(=O)CC1c2ccccc2CC(C)(C)N1C (stereo unspecified)
The displacement of the first is higher: 7.1% for the first, 1.7% for the second.

First: COc1cc(OC)c(OC)cc1CN1CCN(C(=O)c2ccc(F)cc2)CC1
Second: O=C(c1ccc(Cl)cc1)N1CCN(c2ccc(F)cc2)CC1
The displacement of the first is higher: 0.1% for the first, -4.8% for the second.

Going from `O=C(NCC1CCN(C(=O)c2ccc(F)cc2)CC1)c1ccc(F)cc1` to `COc1cc(C(=O)N2CCC(Cc3ccccc3)CC2)c([N+](=O)[O-])cc1OC`, the displacement rises from -35.7% to 9.6%.

Going from `CC(=O)c1cccc(NC(=O)c2cncc(Br)c2)c1` to `O=C(NCc1ccncc1)c1cccc(Br)c1`, the displacement falls from 30.2% to 23.9%.

Compared with `Cc1cc2ncn(CC(=O)N3CCOCC3)c2cc1C`, `CC(C)c1ccc(OCCN2CCOCC2)cc1` is lower in displacement: 12.3% for the first, -4.6% for the second.

Going from `O=C1C(=O)N(Cc2ccc3c(c2)OCO3)C2C=CC=CC12` (stereo unspecified) to `O=C1C(=O)N(Cc2ccc(Cl)c(Cl)c2)C2C=CC=CC12` (stereo unspecified), the displacement falls from 10.1% to 9.6%.

Going from `CCNC(=S)NNC(=O)CSc1nnc(-c2ccc(OC)c(OC)c2)n1-c1ccccc1` to `COc1ccc(-c2cc(C(=O)Nc3cc([N+](=O)[O-])ccc3Cl)c3ccccc3n2)cc1OC`, the displacement rises from -20.1% to -1.5%.

Going from `COCCCNC(=O)CN(c1cc(OC)ccc1OC)S(C)(=O)=O` to `COCCCNCCOCCOc1ccc(Cl)cc1C`, the displacement falls from 0.1% to -0.6%.

Going from `COC(=O)C1=C(C)NC2=C(C(=O)CCC2)C1c1ccc(Cl)cc1` (stereo unspecified) to `CC1=C(C(=O)OCc2ccccc2)C(c2cc3c(cc2Cl)OCO3)C2=C(CC(C)(C)CC2=O)N1` (stereo unspecified), the displacement falls from 2.2% to -1.7%.

First: C/C(Cn1nnc([N+](=O)[O-])n1)=N\NC(=O)c1ccc(C)cc1
Second: CC(=O)c1ccc(NC(=O)CSc2ncn[nH]2)cc1
The displacement of the first is lower: -6.4% for the first, 8.2% for the second.

First: Cc1ccc(S(=O)(=O)Nc2cc([N+](=O)[O-])ccc2Cl)cc1
Second: CC(NS(=O)(=O)c1cccc([N+](=O)[O-])c1)c1ccccc1 (stereo unspecified)
The displacement of the first is lower: -9.3% for the first, 6.1% for the second.

First: O=C(Nc1ccc(Cc2ccncc2)cc1)C(c1ccccc1)c1ccccc1
Second: O=C(Nc1cccc(Cl)c1Cl)C(c1ccccc1)c1ccccc1
The displacement of the first is lower: -9.6% for the first, -5.5% for the second.

Compared with `Cc1cccc(NC(=O)C2C(C(=O)O)C3C=CC2C32CC2)c1` (stereo unspecified), `Cc1cccc(OCC(=O)Nc2cccc(Br)c2)c1` is higher in displacement: -1.1% for the first, 4.9% for the second.

First: O=C(Nc1ccc(N2CCOCC2)cc1)c1cccc2c(Br)cccc12
Second: CC(C)c1ccc(NC(=O)Nc2cccc3ccccc23)cc1
The displacement of the first is higher: 13.3% for the first, 12.9% for the second.

First: O=C(/C=C/c1ccc(F)cc1)Nc1ccccc1Br
Second: O=C(/C=C/c1ccc(Cl)cc1)Nc1ccc(F)c([N+](=O)[O-])c1
The displacement of the first is lower: 8.5% for the first, 11.9% for the second.

First: O=C1SC(N2CCOCC2)C(=O)N1c1ccccc1 (stereo unspecified)
Second: COc1ccc(S(=O)(=O)NCCN2CCOCC2)cc1
The displacement of the first is higher: 5.1% for the first, 2.1% for the second.

First: COCc1cc(C)nc(NNC(=S)Nc2ccccc2)c1C#N
Second: CN(C(=S)Nc1ccccc1)c1ccccc1
The displacement of the first is lower: -9.8% for the first, 3.5% for the second.

First: O=c1c2c(nc3cc(-c4cccs4)[nH]n13)CCS2
Second: O=[N+]([O-])c1ccc(-c2[nH]c(-c3cccs3)nc2-c2ccccc2)cc1
The displacement of the first is higher: 75.8% for the first, -1.6% for the second.

Compared with `O=C(C(c1ccccc1)c1ccccc1)N1CCN(Cc2cccnc2)CC1`, `O=S(=O)(c1ccccc1)N1CCN(Cc2ccncc2)CC1` is higher in displacement: -16.4% for the first, -1.9% for the second.

First: Cc1ccc(/C=N/N=C/c2ccc(C)cc2)cc1
Second: COc1cccc(C(=O)/C=C/c2ccc(Cl)cc2)c1
The displacement of the first is higher: 2.2% for the first, -2.2% for the second.

Going from `Cc1cc(C)n(C(=O)CCN2C(=O)c3ccccc3C2=O)n1` to `CC(C(=O)NCc1ccco1)N1C(=O)c2ccccc2C1=O` (stereo unspecified), the displacement rises from 5.3% to 13.1%.

Going from `CN(CCO)S(=O)(=O)c1ccc2c(c1)Cc1cc(S(=O)(=O)N(C)CCO)ccc1-2` to `Cc1cc(C)cc(N(CC(=O)NCC2CCCO2)S(=O)(=O)c2ccccc2)c1` (stereo unspecified), the displacement falls from 9.2% to -3.1%.

First: Cc1ccc(OCC(=O)Nc2ccccc2CO)c(Br)c1
Second: Cc1ccnc(NC(=O)COc2ccccc2[N+](=O)[O-])c1
The displacement of the first is lower: -3.8% for the first, 4.4% for the second.

First: COc1ccccc1-c1c(C(F)(F)F)oc2cc(O)ccc2c1=O
Second: O=C(/C=C/Nc1cccc(C(F)(F)F)c1)c1ccccc1
The displacement of the first is higher: 6.5% for the first, -1.3% for the second.

First: COc1ccc(CNCc2ccc(OC)c(OC)c2)cc1
Second: COc1ccc(C2CC(=O)C3=C(C2)Nc2ccccc2NC3c2ccccc2OC(C)C)cc1OC (stereo unspecified)
The displacement of the first is higher: 1.8% for the first, -1.9% for the second.

First: Cc1ccc(-c2cc(C(F)(F)F)n3ncc(C(=O)N4CCN(Cc5ccccc5)CC4)c3n2)cc1
Second: O=C(NCc1cccnc1)c1ccc(-c2ccccc2)cc1
The displacement of the first is higher: -2.4% for the first, -9.1% for the second.

First: O=C1CSC(=O)N1c1ccc(Cl)cc1
Second: O=C(COc1ccc(Cl)cc1)NC1=NN(c2ccccc2)C(=O)C1
The displacement of the first is higher: 6.1% for the first, -11% for the second.

First: Cn1c2c(c(=O)n(C)c1=O)C(c1ccc(F)cc1)C1=C(N2)c2ccccc2C1=O (stereo unspecified)
Second: CCOc1ccccc1NC(=O)C(C)N1C(=O)c2ccccc2C1=O (stereo unspecified)
The displacement of the first is lower: -3.5% for the first, 8.8% for the second.

Going from `O=C(NC(=S)Nc1ccc(NC(=O)c2ccco2)c(Cl)c1)c1ccco1` to `C/C(=C\C(=O)c1ccccc1)Nc1cc(C)ccc1Cl`, the displacement falls from 12.6% to 4.5%.

First: O=C1CCC(C23CC4CC(CC(C4)C2)C3)=NN1
Second: Cc1ccc(C)c(NC(=O)CCC2CCCCC2)c1
The displacement of the first is higher: 8.3% for the first, 1.4% for the second.

First: O=C(N/N=C\c1ccc[nH]1)c1cccs1
Second: N/C(Cc1cccs1)=N\OC(=O)COc1ccccc1
The displacement of the first is lower: 0.3% for the first, 14% for the second.

Compared with `O=C(CSc1nc2ccccc2o1)N1c2ccccc2Sc2ccccc21`, `COc1ccccc1N1C(=O)CC(SC(=NCCc2ccccc2)Nc2ccccc2)C1=O` (stereo unspecified) is higher in displacement: -7.6% for the first, 3.9% for the second.

First: Cc1[nH]n(-c2ccccc2)c(=O)c1/C=C1\C=c2ccccc2=N1
Second: Cc1c(Nc2nc3nonc3nc2Nc2cccc(Cl)c2)c(=O)n(-c2ccccc2)n1C
The displacement of the first is lower: -10% for the first, 10% for the second.

Compared with `CC(C)Oc1ccccc1C1CC(=O)Nc2c1cc(Br)c1ccccc21` (stereo unspecified), `O=C(COc1cc2oc(=O)cc(-c3ccccc3)c2cc1Cl)c1ccc(Cl)cc1` is lower in displacement: -1.9% for the first, -10% for the second.

Going from `COc1cc(C(O)c2nccn2C)cc(OC)c1OC` (stereo unspecified) to `C=CCN1C(=O)/C(=C\c2ccc(OC(=O)c3cccc(Br)c3)c(OC)c2)SC1=S`, the displacement rises from 0% to 9.1%.

Going from `CCOc1ccc2c(c1)C(=C1SC(C(=O)OC)=C(C(=O)OC)S1)C(=S)C(C)(C)N2C(=O)C1CC1` to `CCCCCN1C(=O)/C(=C2\SC(=S)N(NC(C)=O)C2=O)c2ccccc21`, the displacement falls from 3.2% to 0.1%.

First: CC(C)c1ccc(/C=C/c2nc(O)c([N+](=O)[O-])c(=O)[nH]2)cc1
Second: CC(C)N1C(=O)/C(=C/C=C/c2ccc([N+](=O)[O-])cc2)SC1=S
The displacement of the first is lower: -2.6% for the first, 9.4% for the second.

Going from `CCC(=O)Nc1ccc2c(c1)N(C(C)=O)c1ccccc1CC2` to `Cc1onc(-c2ccccc2Cl)c1C(=O)N1CCCc2ccccc21`, the displacement rises from -6.7% to 7.4%.

Compared with `Cc1cc(/C=C2\C(=O)NC(=O)N(c3ccc4c(c3)OCO4)C2=O)c(C)n1-c1cccnc1`, `Cc1ccc(-n2c(C)cc(/C=N/NC(=O)c3ccncc3)c2C)c(C)c1` is lower in displacement: 136% for the first, -16.7% for the second.

Compared with `OCCn1nc(-c2ccccc2)cc1-c1ccccc1`, `Cc1ccc(C(C)NC(=O)Cc2ccccc2)c(C)c1` (stereo unspecified) is higher in displacement: 8.4% for the first, 10.5% for the second.

Going from `CC(C)CN1C(=O)c2ccc(C(=O)Nc3ccc(C(C)C)cc3)cc2C1=O` to `Cc1cccc(NC(=O)c2c(NC(=O)C(C)(C)C)sc3c2CCC3)c1`, the displacement falls from 4.4% to -2.3%.

Going from `Clc1ccc(N=Cc2cccc(OCc3ccccc3)c2)cc1Cl` to `N/C(=N\OC(=O)c1ccc(Cl)c([N+](=O)[O-])c1)c1ccccc1`, the displacement falls from -2.7% to -3.2%.

Going from `C=CCN1C(=O)/C(=C\c2cc(OC)c(O)c([N+](=O)[O-])c2)C(=O)NC1=S` to `CCOc1ccc2cc(S(=O)(=O)N3CCCCC3)ccc2c1`, the displacement falls from 22.2% to -5.5%.

With `N/C(=C\C(=O)c1ccccc1O)C(Cl)(Cl)Cl` the displacement was -1.4%.

Source: PubChem BioAssay AID1240 (Sanford-Burnham Center for Chemical Genomics, 2008)
